Measured values reported in PubChem BioAssay AID1347165 (National Center for Advancing Translational Sciences (NCATS), 2019).
Out of some 220,000 compounds screened, about 5,700 (2.6%) were called active. The shares of active, inactive and inconclusive entries below differ from those in the screen. Calls follow the shape of the dose curve; as a rule, active = well fitted inhibition curve with a large enough effect; inconclusive = small, poorly fitted or top-dose-only effect; inactive = no such curve, though single readings can be large or run the other way. Where the call is inconclusive, the potency comes from a doubtful curve fit.

biological target: Lysine-specific demethylase 5B (Homo sapiens) (UniProt Q9UGL1); experiment: Primary screen for KDM5B Histone Demethylases FDH-coupled qHTS; details: FDH-coupled NADH fluorescence (FDH is formaldehyde dehydrogenase); series mostly up to 57.7 µM; also: nearly all actives have a fitted effect of over 70% in size
In short: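 Compound dilutions met 200 nM (final) KDM5BΔAP for 10 min at room temperature before substrate addition. The substrate mix held 12.5 µM H3K4me3 with cofactors 25 µM α-ketoglutarate and 50 µM Fe²⁺. NADH signal gain over 30 min defined activity.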
Potency is read from the fitted curve at half-maximal effect; tags tell the direction and shape of the fitted curve.

Sequence of UniProt Q9UGL1 (Q9UGL1 whole entry, looked up): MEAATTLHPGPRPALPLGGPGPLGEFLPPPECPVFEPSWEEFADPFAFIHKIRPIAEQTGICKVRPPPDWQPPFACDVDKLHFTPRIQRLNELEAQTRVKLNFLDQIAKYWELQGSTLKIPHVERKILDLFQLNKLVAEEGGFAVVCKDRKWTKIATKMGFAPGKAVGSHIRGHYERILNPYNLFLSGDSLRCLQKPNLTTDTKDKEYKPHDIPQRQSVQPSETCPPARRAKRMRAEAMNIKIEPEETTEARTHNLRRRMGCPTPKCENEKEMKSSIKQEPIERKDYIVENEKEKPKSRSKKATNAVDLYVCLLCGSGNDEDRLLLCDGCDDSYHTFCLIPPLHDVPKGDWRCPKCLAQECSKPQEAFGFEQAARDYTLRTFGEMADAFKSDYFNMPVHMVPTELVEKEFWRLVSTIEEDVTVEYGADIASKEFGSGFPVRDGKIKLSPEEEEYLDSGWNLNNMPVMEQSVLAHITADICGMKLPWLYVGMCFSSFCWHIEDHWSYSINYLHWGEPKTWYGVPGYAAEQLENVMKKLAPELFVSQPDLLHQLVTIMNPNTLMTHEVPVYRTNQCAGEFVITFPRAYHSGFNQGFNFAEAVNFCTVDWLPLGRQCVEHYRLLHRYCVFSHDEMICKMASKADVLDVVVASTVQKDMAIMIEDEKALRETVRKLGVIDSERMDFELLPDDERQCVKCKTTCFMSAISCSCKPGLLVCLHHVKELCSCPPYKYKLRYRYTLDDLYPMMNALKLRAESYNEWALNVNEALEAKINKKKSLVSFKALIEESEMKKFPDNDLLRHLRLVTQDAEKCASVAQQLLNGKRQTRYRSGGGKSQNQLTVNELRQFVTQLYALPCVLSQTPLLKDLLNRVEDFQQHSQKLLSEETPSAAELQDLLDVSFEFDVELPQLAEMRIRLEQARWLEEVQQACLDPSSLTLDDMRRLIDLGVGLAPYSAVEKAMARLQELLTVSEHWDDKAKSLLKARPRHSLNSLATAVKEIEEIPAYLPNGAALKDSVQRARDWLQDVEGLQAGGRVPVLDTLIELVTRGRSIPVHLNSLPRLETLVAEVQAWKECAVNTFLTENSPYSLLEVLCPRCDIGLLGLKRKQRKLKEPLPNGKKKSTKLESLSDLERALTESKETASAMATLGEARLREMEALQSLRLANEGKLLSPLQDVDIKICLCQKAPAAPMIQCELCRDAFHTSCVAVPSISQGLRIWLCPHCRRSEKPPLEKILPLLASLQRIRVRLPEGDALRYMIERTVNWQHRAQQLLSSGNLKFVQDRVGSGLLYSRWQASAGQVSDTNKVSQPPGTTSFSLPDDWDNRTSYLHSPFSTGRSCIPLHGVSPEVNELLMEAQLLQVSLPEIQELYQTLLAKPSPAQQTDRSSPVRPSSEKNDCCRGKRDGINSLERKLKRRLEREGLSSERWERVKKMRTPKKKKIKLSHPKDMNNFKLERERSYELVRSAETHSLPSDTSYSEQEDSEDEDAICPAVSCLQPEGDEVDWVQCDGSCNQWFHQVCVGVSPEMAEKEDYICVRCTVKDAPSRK

| SMILES | Potency |
| --- | --- |
| CC(=O)Nc1ccc(S(=O)(=O)N2Cc3ccccc3OC3(CCN(C(=O)NC(C)C)CC3)C2)cc1 | inactive |
| COc1ccc(S(=O)(=O)c2cn(C)c3cc(N4CCCC4)c(F)cc3c2=O)cc1 | inconclusive: 6.31 µM [inhibitor, full curve, poor fit] |
| O=C1CNc2ccc(C(=O)N3C[C@H](CO)C[C@H](CN4CCCC4)C3)cc2N1 | inconclusive: 20 µM [inhibitor, single point] |
| Cc1ccc(S(=O)(=O)N(C)Cc2c(C)nn(-c3ccccc3)c2C)cc1 | inactive |
| COc1cccc(CNC(=O)c2cnc(N3CCCC3)nc2C)c1 | inconclusive: 31.6 µM [inhibitor, partial curve, poor fit] |
| COc1ccc(-c2nc(-c3ccccc3)c(-c3ccccc3)[nH]2)cc1Br | inconclusive: 25.1 µM [inhibitor, partial curve, poor fit] |
| CC[C@@H](C)[C@H](NC(=O)c1sc(-c2ccccc2F)nc1C)C(=O)O | inconclusive: 39.8 µM [inhibitor, single point] |
| Cn1ncc2c(NC3CCC(c4ccccc4)CC3)ncnc21 (stereo not given) | inactive |
| COC(=O)C1=C(C)OC(N)=C(C#N)C1c1ccc(C(=O)OC)cc1 (stereo not given) | inconclusive: 22.4 µM [inhibitor, single point] |
| O=C(Cc1ccc(F)cc1)N1CCn2c(nn(-c3ccc(F)cc3)c2=O)C1 | inactive |
| Cc1cccc(CCNC(=O)c2noc(-c3ccc4c(c3)OCO4)n2)c1 | active: 31.6 µM |
| Cc1c(C(=O)NCc2ccc(N(C)C)cc2)oc2c1-c1nn(Cc3cccc(Cl)c3)cc1CC2 | inconclusive: 35.5 µM [inhibitor, partial curve, poor fit] |
| Cc1nc2ccc(C(=O)Nc3ccc4c(c3)C(=O)N3CCC[C@H]3C(=O)N4)cc2s1 | inconclusive: 35.5 µM [inhibitor, single point] |
| CN1CC(=O)N(C2CCNC2)Cc2c1ncnc2N1CCC(N2CCOCC2)CC1 (stereo not given) | inconclusive: 50.1 µM [inhibitor, partial curve, poor fit] |
| COC(=O)CNC(=O)C(Cc1ccccc1)NS(=O)(=O)c1ccc2c(c1)c(=O)n(C)c(=O)n2C (stereo not given) | inconclusive: 28.2 µM [inhibitor, partial curve, poor fit] |
| CCC(=O)Oc1ccc2oc(-c3ccc(OC)cc3)cc(=O)c2c1 | inconclusive: 1.78 µM [inhibitor, full curve, poor fit] |
| N#Cc1ccccc1CSc1nc(C(F)(F)F)nc2ccccc12 | inactive |
| COc1ccc(NC(=O)c2ccccc2)c2cccnc12 | inactive |
| CCc1cccc(NC(=O)c2ccc3c(c2)N(CC)C2CCCCCN2C3=O)c1 (stereo not given) | inconclusive: 25.1 µM [inhibitor, partial curve, poor fit] |
| O=S1(=O)CCN(Cc2ccccc2)c2c(F)nc(N3CCOCC3)c(F)c21 | inconclusive: 39.8 µM [inhibitor, single point] |
| Cc1ccc(C)c(C(=O)NC(C)C2CC3CCC2C3)c1 (stereo not given) | inactive |
| O=C(NCCn1c(-c2ccc(F)cc2)nc2ccccc21)Nc1cc(F)ccc1F | inconclusive: 25.1 µM [inhibitor, partial curve, poor fit] |
| CCCCCCCCCC(=O)Nc1ccc(C)c(C)c1 | inactive |

| SMILES | Potency |
| --- | --- |
| COc1ccc(CCNC(=O)c2cc(-c3ccccc3)nc3ccccc23)cc1OC | inconclusive: 0.794 µM [inhibitor, partial curve, poor fit] |
| O=C(Nc1nnc(C2CC2)s1)C1CC(=O)N(c2n[nH]c3cccc(F)c23)C1 (stereo not given) | inactive |
| O=C(CSc1ccc2ccccc2n1)Nc1ccc2c(c1)OCCCO2 | inactive |
| C=CCn1cc2c3c(cccc31)[C@H](CC(C)C)N[C@H](C(=O)N1CCN(C)CC1)C2 | active: 22.4 µM |
| CC(OC(=O)c1cc(-c2ccco2)nc2ccccc12)C(=O)NC(=O)NC1CCCCC1 (stereo not given) | inconclusive: 20 µM [inhibitor, partial curve, poor fit] |
| CC1CC(=O)Nc2cc(S(=O)(=O)NCc3cccs3)ccc2S1 (stereo not given) | inactive |
| Cc1cc(C)c2nc(-c3ccccn3)cc(C(=O)Nc3cc(C)on3)c2c1 | inconclusive: 1.78 µM [inhibitor, full curve, poor fit] |
| CC(=O)N1CCC(C(=O)NCc2nnc3ccc(-c4ccc(C)cc4)nn23)CC1 | active: 31.6 µM |
| COc1ccccc1CNC(=O)c1ccc2c(c1)sc1nc(-c3ccc(F)cc3)cn12 | inconclusive: 15.8 µM [inhibitor, partial curve, poor fit] |
| Cc1ccc(NC(=O)C2=C(c3ccccc3)NC(=S)NC2c2ccc(C(C)(C)C)cc2)cc1 (stereo not given) | inconclusive: 20 µM [inhibitor, partial curve, poor fit] |
| COc1ccc(C(=O)O)cc1S(=O)(=O)NCC(=O)O | inactive |
| COc1ccc(C2C(C(N)=O)=C(C)Nc3nc(-c4ccccc4Cl)nn32)cc1 (stereo not given) | inconclusive: 39.8 µM [inhibitor, single point] |
| COc1ccc(CCC(=O)N2CCC(Cc3nc(C4CCOCC4)no3)CC2)cc1 | inconclusive: 28.2 µM [inhibitor, single point] |
| COC(=O)C1=C(C)OC(N)=C(C#N)C1c1cccc(C(F)(F)F)c1 (stereo not given) | inactive |
| COc1ccc(CC(=O)N2CCC(Nc3nccnc3OC)CC2)cc1 | active: 28.2 µM |
| Cc1coc2cc3o/c(=N/O)c4c(c3cc12)CCC4 | inactive |
| Cc1ccc2oc(C(=O)N(Cc3ccccc3F)C3CCS(=O)(=O)C3)c(C)c2c1 (stereo not given) | inactive |
| CCC(=O)N1Cc2ccccc2CC2(CCCN2CC2CCCC2)C1 (stereo not given) | inconclusive: 44.7 µM [inhibitor, partial curve, poor fit] |
| Cc1ccc(-n2nc(C(=O)NCCN(C)C)c(=O)n(C)c2=O)cc1 | inactive |
| Cc1c(C(=O)N2CC(C)OC(C)C2)[nH]c2ccc(Br)cc12 (stereo not given) | inactive |
| O=C(NC1CCN(c2cc(-c3cccs3)[nH]n2)C1)c1ccc(Br)cc1 (stereo not given) | active: 4.47 µM |
| CCOC(=O)C1=C(CS(=O)(=O)c2ccc(Cl)cc2)NC(=O)NC1c1ccc(SC)cc1 (stereo not given) | inactive |
